Laboratory results reported in the supplement of paper PMC12067230.
The data scatter; read single values as rough.

Assay: amyloid nucleation score relative to library mode (yeast Sup35 reporter selection) (log enrichment difference); higher = more amyloid nucleation; sequences are the first 22 residues of the Bri2 peptide extended by up to 12 random residues
Details: random library (experiment): 2;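 active = nucleation score significantly above 0 at FDR 0.05; inactive = not significantly above 0 or absent from output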
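Further: [psi-pin-] Saccharomyces cerevisiae expressing SupN fusions, induced by 100 µM Cu2SO4, selected 7 d at 30 °C without adenine and uracil, scored by deep sequencing of output versus input.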

Row | Sequence | amyloid nucleation score
1 | EASNCFAIRHFENKFAVETLICIVVDDDCECRCS | 7.48
2 | EASNCFAIRHFENKFAVETLICLESHSL | -0.223
3 | EASNCFAIRHFENKFAVETLICDRNVY | inactive
4 | EASNCFAIRHFENKFAVETLICMCVGVLYWTCHP | 2.34
5 | EASNCFAIRHFENKFAVETLICNKSCCCNSHYTF | 6.67
6 | EASNCFAIRHFENKFAVETLICVLKTVRFNLYVP | inactive
7 | EASNCFAIRHFENKFAVETLICYTDGLYMATIMK | inactive
8 | EASNCFAIRHFENKFAVETLICVDYWFCFFVRTG | 2.96
9 | EASNCFAIRHFENKFAVETLICVHLCDAMVQRLC | inactive
10 | EASNCFAIRHFENKFAVETLICGVIPYENVSATW | 0.616
11 | EASNCFAIRHFENKFAVETLICWEMNLWLFGCTD | -0.251
12 | EASNCFAIRHFENKFAVETLICYYHY | 2.68
13 | EASNCFAIRHFENKFAVETLICFNRKASDSTSRT | 1.18
14 | EASNCFAIRHFENKFAVETLICGTIDKGSVTTCC | inactive
15 | EASNCFAIRHFENKFAVETLICIRGYTFVWFTAW | inactive
16 | EASNCFAIRHFENKFAVETLICFSHMCLYLTGDL | inactive
17 | EASNCFAIRHFENKFAVETLICLEMFRL | inactive
18 | EASNCFAIRHFENKFAVETLICVFWTSPYIVCDR | inactive
19 | EASNCFAIRHFENKFAVETLICYISLDHLAPISF | inactive
20 | EASNCFAIRHFENKFAVETLICCSCFFTFLATTR | 8.29
21 | EASNCFAIRHFENKFAVETLICLSFTNNIGIVSK | 5.67
22 | EASNCFAIRHFENKFAVETLICHLNSVG | 1.44
23 | EASNCFAIRHFENKFAVETLICISVTFYESPYVP | 2.1

Same assay, conditions: random library (experiment): 3

Row | Sequence | amyloid nucleation score
24 | EASNCFAIRHFENKFAVETLICGVRRHSGKGFHV | inactive
25 | EASNCFAIRHFENKFAVETLICCSWKIRWPVCFG | 4.03
26 | EASNCFAIRHFENKFAVETLICRITWCVDLGAPG | inactive
27 | EASNCFAIRHFENKFAVETLICRSK | 0.778
28 | EASNCFAIRHFENKFAVETLICEACRVRGVMQSR | 1
29 | EASNCFAIRHFENKFAVETLICASGRIIQSGG | 0.315
30 | EASNCFAIRHFENKFAVETLICWYGMPPVEWAEC | inactive
31 | EASNCFAIRHFENKFAVETLICGGSCFTCSIGSW | 8.49
32 | EASNCFAIRHFENKFAVETLICYSHRSQQFCNNV | 3.87
33 | EASNCFAIRHFENKFAVETLICMYIRLD | inactive
34 | EASNCFAIRHFENKFAVETLICPVRYVLAKLSPV | inactive
35 | EASNCFAIRHFENKFAVETLICLKTCFSSMDLHS | 1.51
36 | EASNCFAIRHFENKFAVETLICAAFGWAANNWPG | 3.88
37 | EASNCFAIRHFENKFAVETLICCVGY | 7.16
38 | EASNCFAIRHFENKFAVETLICPKCWVGAHSRLS | inactive
39 | EASNCFAIRHFENKFAVETLICCGSVTICRCASV | 9.06
40 | EASNCFAIRHFENKFAVETLICGIVQRVEWGFGY | inactive
41 | EASNCFAIRHFENKFAVETLICRGEMGARRGRSL | -0.0945
42 | EASNCFAIRHFENKFAVETLICRVPVSLFRSYPS | inactive

Row | Sequence | amyloid nucleation score
43 | EASNCFAIRHFENKFAVETLICAGRPRGMKCLGW | 0.0651
44 | EASNCFAIRHFENKFAVETLICHNGDTDVPLAQG | inactive
45 | EASNCFAIRHFENKFAVETLICLSELIHFFVKRV | 0.788
46 | EASNCFAIRHFENKFAVETLICFWSCIIWGECCC | inactive
47 | EASNCFAIRHFENKFAVETLICLDEGECTFKLKR | 3.92
48 | EASNCFAIRHFENKFAVETLICGSVLTFATSLDS | 7.05
49 | EASNCFAIRHFENKFAVETLICRRVQPLKTKCWL | inactive
50 | EASNCFAIRHFENKFAVETLICQMS | inactive
51 | EASNCFAIRHFENKFAVETLICRSWCIRCRVWKL | inactive
52 | EASNCFAIRHFENKFAVETLICHSAMWYVFTFTE | 5.57
53 | EASNCFAIRHFENKFAVETLICGNRWCQDATSVW | 2.59
54 | EASNCFAIRHFENKFAVETLICPCDMGQRMGWYR | 5.2
55 | EASNCFAIRHFENKFAVETLICLFDKRRVRAGDS | inactive
56 | EASNCFAIRHFENKFAVETLICIARKVFFICRRY | inactive
57 | EASNCFAIRHFENKFAVETLICTENQRGLPSGSC | inactive
58 | EASNCFAIRHFENKFAVETLICVTR | inactive
59 | EASNCFAIRHFENKFAVETLICILYLCTSYFVKR | inactive
60 | EASNCFAIRHFENKFAVETLICPSRPETDDGGSF | inactive
